Source: PubChem BioAssay AID1745853 (National Center for Advancing Translational Sciences (NCATS), 2022)
The other results are listed elsewhere or left out. Shown are side measurements of this screen, not its main read-out; they come without a call.

Assays:
Assay in all cases: Primary Screen for Target Class Profiling of Small Molecule Inhibitors of Methyltransferases
[1] = biological target: Glycine N-methyltransferase (Homo sapiens) (UniProt Q14749); conditions: purified enzyme, MTase-Glo SAH luminescence; measured here: GNMT inhibition; at 40 µM; stronger effect = lower value
How it was run: (§1)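 Each enzyme was reacted with SAM and its substrate, with compounds tested once at 40 uM; SAH formed was read by MTase-Glo luminescence.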

[2] = biological target: Guanidinoacetate N-methyltransferase (Homo sapiens) (UniProt Q14353); conditions: purified enzyme, MTase-Glo SAH luminescence; measured here: GAMT inhibition; at 40 µM; stronger effect = lower value
How it was run: as §1

[3] = biological target: Histamine N-methyltransferase (Homo sapiens) (UniProt P50135); conditions: purified enzyme, MTase-Glo SAH luminescence; measured here: HNMT inhibition; at 40 µM; stronger effect = lower value
How it was run: as §1

[4] = biological target: Nicotinamide N-methyltransferase (Homo sapiens) (UniProt P40261); conditions: purified enzyme, MTase-Glo SAH luminescence; measured here: NNMT inhibition; at 40 µM; stronger effect = lower value
How it was run: as §1

[5] = biological target: Phenylethanolamine N-methyltransferase (Homo sapiens) (UniProt P11086); conditions: purified enzyme, MTase-Glo SAH luminescence; measured here: PNMT inhibition; at 40 µM; stronger effect = lower value
How it was run: as §1
% is set by controls: 0 for no effect and ±100 for the full control effect.

SMILES	activity change, negative = inhibition [1] [%]	activity change, negative = inhibition [2] [%]	activity change, negative = inhibition [3] [%]	activity change, negative = inhibition [4] [%]	activity change, negative = inhibition [5] [%]
C[C@@H]1O[C@@H](O[C@H]2[C@H](O[C@H]3[C@H](O[C@H]4CC[C@@]5(C)C(CC[C@]6(C)C5CC=C5[C@@H]7CC(C)(C)C[C@@H](O)[C@]7(C)CC[C@]56C)[C@@]4(C)CO)O[C@H](C(=O)O)[C@@H](O)[C@@H]3O)O[C@H](CO)[C@H](O)[C@@H]2O)[C@H](O)[C@H](O)[C@H]1O (stereo not given in full)	0	6.89	5.75	-16.8	9.42
O=C(CCCc1nnc2n3nc(-c4ccccc4)nc3c3ccccc3n12)N1CCN(c2ccccc2)CC1	-7.23	1.8	8.43	12.3	1.15
CCCC1c2ccc(C)n2CCN1C(=O)NCc1cccc(OC)c1 (stereo not given)	-10.3	2.75	-7.99	-7.95	-10.3
COc1ccccc1Nc1ncc2c(n1)CN(C(=O)c1cc3ccccc3n1C)CCN2	-8.18	-6.43	-2.89	-12.4	-6.89
CC(C)c1noc(CC2CCN(C(=O)c3cc4ccccc4[nH]3)CC2)n1	-0.762	-6.41	2.83	-2.23	-2.48
C[C@@H](NC(=O)C1=C[C@@H](NS(=O)(=O)c2cccc(C(F)(F)F)c2)[C@@H](O)[C@H](O)C1)C(N)=O	-0.343	0.955	1.48	0.222	-20.4
CC(C)OCCCn1c(=O)c2ccccc2n2c(SCC(=O)Nc3cc(F)ccc3F)nnc12	-7.1	4.79	-0.297	-8.2	-2.73
Cc1cc(F)ccc1[C@H]1C[C@@H](N2CCN3C(=O)CC[C@H]3C2)CCN1C(=O)N(C)[C@H](C)c1cc(C(F)(F)F)cc(C(F)(F)F)c1	1.48	23.7	8.73	3.22	9.83
CCOC(=O)c1cc2n(n1)CC(C)(C(=O)NCCCOC(C)C)N(c1cccc(CC)c1)C2=O (stereo not given)	3.57	4.65	6.48	3.29	1.49
COc1ccc(CNC(=O)c2cc3c(s2)CN(C2CC2)C3)cc1OC	-26.3	-3.08	-6.11	-7.06	-8.27
O=C(CCc1nnc2n(CCc3ccccc3)c(=O)c3ccccc3n12)NCCc1ccccc1	-14.7	1.61	1.32	-15.7	-9.13
C=CC(C)(O)CC/C=C(\C)C(=O)O[C@@H]1[C@@H](O)[C@H](OC(C)(C=C)CC/C=C(\C)C(=O)O[C@@H]2O[C@H](CO)[C@@H](O)[C@H](O)[C@H]2O)O[C@H](CO)[C@H]1OC(=O)/C(C)=C/CCC(C)(O)C=C (stereo not given in full)	0	6.79	6.9	-8.35	7.32
COc1cccc(CN2C(=O)c3nc4ccccc4n3CC2(C)C(=O)NC2CCCCC2C)c1OC (stereo not given)	1.16	0	4.1	4.88	-1.38
C=C1CC[C@]2(C(=O)O[C@@H]3O[C@H](CO)[C@@H](O)[C@H](O)[C@H]3O)CC[C@]3(C)C(=CCC4[C@@]5(C)C[C@H](O)[C@@H](O[C@@H]6O[C@H](C(=O)O)[C@@H](O)[C@H](O)[C@H]6O)[C@](C)(C=O)C5CC[C@]43C)C2C1 (stereo not given in full)	7.6	0.878	11	-13.5	6.83
Nc1ccn([C@@H]2O[C@H](CO)[C@@H](O)[C@@H]2O)c(=O)n1	-7.7	4.99	-0.568	-6.93	3.98
Nc1ncnc2c1ncn2C1CCCO1 (stereo not given)	-12.1	-3.27	-3.74	-14	-3.63
Cc1cccc(-c2n[nH]n3c2nc(=O)c2ccc(C(=O)N4CCN(c5cc(C)ccc5C)CC4)cc23)c1	-18.6	0	-4.22	-11.2	-6.37

SMILES	activity change, negative = inhibition [1] [%]	activity change, negative = inhibition [2] [%]	activity change, negative = inhibition [3] [%]	activity change, negative = inhibition [4] [%]	activity change, negative = inhibition [5] [%]
O=C(c1ccccc1C(F)(F)F)N1CCc2nc3cc[nH]n3c(=O)c2C1	-11.1	-8.59	-1.79	-3.95	-16.2
COC[C@H]1NC(=O)CC[C@H]1C(=O)O	-3.8	-3.69	0.995	-9.4	8.71
Cc1nc(C(=O)N2CC[C@H](NS(=O)(=O)c3cn(C)cn3)C[C@H]2C(=O)N[C@H](Cc2ccccc2)C(N)=O)cs1	1.47	-3.88	3.46	-0.167	0.678
CCCN(CC1CCOC1)S(=O)(=O)c1cc(F)ccc1C (stereo not given)	-1.92	0.946	2.63	-7.48	-2.52
CC(C)n1nnc2cc(S(=O)(=O)N(C)CC(=O)N3CCN(c4ccccn4)CC3)ccc21	-3.31	3.15	5.53	-4.58	3.91
CC1CCCC(NC(=O)CCn2ccc3cc(S(=O)(=O)N4CCCC4)ccc32)C1C (stereo not given)	3.15	0.351	1.81	-1.29	1.27
Cc1cc(C)c(S(=O)(=O)n2cc(C)cc2C)c(C)c1	-7.99	-8.58	3.1	-69.2	-5
Cc1cccc(-c2n[nH]n3c2nc(=O)c2ccc(C(=O)NCc4ccc(F)cc4)cc23)c1	-19.2	2.18	-5.43	-8.68	-5.82
CC(C)NC(=O)c1ccc2c(=O)n(Cc3ccccc3)c3nn(CC(=O)NC4CCCCC4)c(=O)n3c2c1	0.369	2.91	4.61	0.895	1.7
CCC(C)/C=C(C)/C=C/C1=CC2=C(Cl)C(=O)C(C)(OC(C)=O)C(=O)C2=CN1C(CC(=O)O)C(=O)O (stereo not given)	-9.04	-9.39	-0.634	-16.7	-8.86
Cc1[nH]c2ccccc2c1CCNCc1ccc(/C=C/C(=O)NO)cc1	4.64	1.05	-73.3	-14.5	-5.88
N[C@@H](Cc1ccc(O)c(I)c1)C(=O)O	3.39	9.99	1.93	-7.04	2.06
CCc1cc(C(=O)N2CCC(n3nccc3NC(=O)CCOc3ccccc3)CC2)no1	-0.508	-4.42	1.07	-2.82	0.753
C[S+](=O)([O-])N1CCn2ncc(C(=O)NCc3ccc(Cl)nc3)c2C1	-3.48	-6.78	-1.91	-7.01	-2.12
CC(C)CN1CC(C(=O)NCc2nc(-c3ccccc3)no2)CC1=O (stereo not given)	-2.57	-7.6	-2.18	-11.2	4.82
CCn1c(=O)n(CC)c2cc(S(=O)(=O)Nc3cccc(OC)c3)ccc21	5.28	1.67	2.47	-12.5	4.24
Cc1ccc(-c2ccccc2CN2CCN(C(=O)c3ccc(C(F)(F)F)cc3)CC2)cc1Cl	-7.98	-12.8	-5.21	-13.7	-12.7
